Assay results taken from ChEMBL document CHEMBL4888484, “Replenishing the malaria drug discovery pipeline: Screening and hit evaluation of the MMV Hit Generation Library 1 (HGL1) against asexual blood stage Plasmodium falciparum ,using a nano luciferase reporter read-out” (2022).
Hit rate of the full screen: of about 150,000 compounds, about 540 (0.36%) showed an effect of 50% or more. This is one part of the list.

system: Plasmodium falciparum; assay: Primary screen in NF54 nanoGlo assay, in single point, at 2uM, 72h; a lower Z score goes with more inhibition; assay type: functional, Erythrocyte; settings: timepoint 72 hour

Structure (SMILES)	% Inhibition [%]	Z score
CCNc1nnc(-c2cc(C)n(C)n2)s1	-5	0.59
OC[C@@H]1C[C@H](F)CN1Cc1ccncc1F	-3	0.41
CCN1C(=O)CCc2cc(C(=O)N3CCCCC3)ccc21	0	-0.05
CC(=O)Nc1ccc(-c2cn3c4ccccc4ccc3[n+]2C)cc1	87	-10.86
O=C(CCN1CCCC1=O)Nc1cnn(-c2ccccc2)n1	-18	2.39
Cc1ccc(S(=O)(=O)NCc2ccc(N3CCCC3)cc2)cc1	2	-0.34
COc1ccc(CCNC(=O)[C@H](C)n2nnc3ccccc32)cc1OC	9	-1.6
OC[C@@H]1O[C@H](CNCc2ccc(F)cc2)[C@H](N2CCN(c3ncccn3)CC2)[C@@H]1O	-8	1.34
CC1CC(NCCCNc2ccccc2)c2ncnn21 (stereo not given)	-1	0.22
Cc1cc(CN2CCC3(CCC(=O)N(CCc4ccncc4)C3)CC2)on1	-9	1.16
O=C(CC1(N2Cc3ccccc3C2=O)CCCCC1)NCc1ccccc1	-10	1.5
Cc1ccc(-c2ccnn2C)cc1NC(=O)Nc1cc[nH]n1	-5	0.66
FC(F)(F)c1nnc2ccc(N3CCn4ccnc4C3)nn12	-2	0.37
O=C(Nc1nc(C(=O)NCC(F)(F)F)co1)c1ccsc1	11	-1.54
C#CCN(C(=O)CNC(=O)c1cccc(OC)c1)C1CCCC1	11	-1.25
CCCCC(C(=O)Nc1cc(C)on1)N1CCCC(c2ccn[nH]2)C1 (stereo not given)	-6	1.18
Cc1ccc(-n2c(=O)c3sccc3n(CC(=O)NCc3ccccc3Cl)c2=O)cc1F	-10	1.12
O=C(c1ccc2cccc(Cl)c2n1)N1CC[C@H](N2CCC(O)CC2)[C@@H](O)C1	-17	2.39
Cc1ccc(S(C)(=O)=O)c(NC(=O)N(C)CC2CC2)c1	17	-2.02
O=C1CCc2cc(C(=O)N3CCC4(CCC4)CC3)ccc2N1	-13	1.46
COc1ccc(F)c(CN2CCC[C@@]3(CCN(C(=O)c4cc5ccccc5[nH]4)C3)C2)c1	-10	0.91
O=C(c1ccc(Cl)cc1)N1C[C@@H]2CC[C@H]1CN(Cc1cscn1)C2	-12	1.32
Cc1cc(C)n(Cc2cc(C(=O)NCc3ccon3)n[nH]2)n1	13	-1.66
CC1CC(C)CC(NC(=O)c2ccc(=O)n(CCF)n2)C1 (stereo not given)	-9	1.32
CCC(C)(C)c1nnc(NC(=O)C(C)C)s1	-9	1.61
CCN(CCC1CCN(C(=O)Nc2ccc(Cl)c(F)c2)CC1)CC1CC1	4	-0.4
Cc1cc(C(=O)N2CCC[C@H](Cn3cc(C4CCCC4)nn3)C2)nc(C)n1	-2	0.21
NC(=O)c1ccc(O[C@H]2CCN(C(=O)CC3CCCCC3)C2)nc1	-11	1.8

Structure (SMILES)	% Inhibition [%]	Z score
Cc1cc(CS(=O)(=O)N2CCc3c2cccc3C(F)(F)F)on1	-5	0.87
CCCCn1nc(C2CCN(C(=O)OC(C)(C)C)CC2)c2c1CCOC2	5	-1
O=C(COc1ccccc1)Nc1nc2ccc(Cl)cc2o1	-7	1.39
COCCn1c(C)cnc1CCNC(=O)c1ccco1	-9	1.32
Cn1cccc1-c1noc(CNC(=O)[C@@H]2CCCO2)n1	-20	2.53
O=C1CCC2(CCN1)CCN(S(=O)(=O)c1ccc3c(c1)OCCO3)CC2	-3	0.35
CS(=O)(=O)N1C2CCC(C2)C1C(=O)NC1CCCC1 (stereo not given)	3	-0.58
COc1ccc(NC(C)(C)C(=O)N2CCN(Cc3ccc(F)cc3)C(=O)C2)cc1	-16	2.53
O=C(C1CCCC1)N1CC[C@@]2(CCCN(CC3CCCCC3)C2=O)C1	-13	1.7
Cc1csc(CN(C)Cc2nonc2C)n1	3	-0.55
CC(C)C[C@H](O)C(=O)N1CCC2(CC1)C(=O)N(C)c1ccccc12	-10	0.9
COc1ccc(C)cc1NC(=O)[C@@H]1CCCN1C(=O)c1cc(C(N)=O)cn1C	-12	1.44
Cc1onc(-c2c(Cl)cccc2Cl)c1CN1CCO[C@H](C(F)(F)F)C1	-16	1.51
CCn1cc(C(=O)NCC2(O)CCC2)cn1	-8	0.98
O=C(O)[C@H]1CCCN(Cc2ccccc2OCc2c(F)cccc2Cl)C1	3	-0.33
Cc1n[nH]cc1CN[C@@H](Cn1cnc2ccccc21)c1ccc(F)cc1	-13	1.21
CCCn1ncc(C(=O)N2CCC(OCc3ccccn3)CC2)c1C	-4	0.6
C[C@H](NCC(C)(C)S(C)(=O)=O)c1ccc(-n2cnnn2)cc1	-7	0.79
COC(=O)c1cnc(N2CC(c3ccccc3)C3CCCC32)nc1 (stereo not given)	-11	1.2
Oc1ccc(Cl)c(CN2CC(N3CCOCC3)C2)c1Cl	-13	1.59
Cc1nc(C(=O)OC2CCCCCC2)cs1	8	-1.23
C[C@@H](c1cccs1)N(C)Cc1cccc2c1NCC2	-12	1.4
COC(=O)c1ccc2c(n1)CCCN2S(=O)(=O)c1ccccc1	24	-2.84
Cc1csc(-c2cc(S(=O)(=O)NCCN3CCC(C)CC3)cn2CC(=O)N2CCCCC2)n1	3	-0.39
CC(C)(C)OC1CC(NC(=O)[C@@H](O)Cc2ccccc2)C1 (stereo not given in full)	-7	0.94
c1coc(-c2ncc(-c3nccn3-c3cnc4ccccc4c3)cn2)c1	7	-0.6
CCc1cc(N[C@H]2CCCN(Cc3cccc(O)c3)C2)n2nccc2n1	-9	1.42
